Paper PMC3950691
Results are given in words; binding and its absence hold for the method and conditions named. For part of these data: Binding seen in cells or lysates may run through a third protein. Some binding calls cover weakened binding; strength is not graded here. For part of these data: Sequences can lack the tags named with a protein. One block for each binder: values may come before it.

Chains of the proteins cited; added tags and fusions are not shown.
UniProt P20448: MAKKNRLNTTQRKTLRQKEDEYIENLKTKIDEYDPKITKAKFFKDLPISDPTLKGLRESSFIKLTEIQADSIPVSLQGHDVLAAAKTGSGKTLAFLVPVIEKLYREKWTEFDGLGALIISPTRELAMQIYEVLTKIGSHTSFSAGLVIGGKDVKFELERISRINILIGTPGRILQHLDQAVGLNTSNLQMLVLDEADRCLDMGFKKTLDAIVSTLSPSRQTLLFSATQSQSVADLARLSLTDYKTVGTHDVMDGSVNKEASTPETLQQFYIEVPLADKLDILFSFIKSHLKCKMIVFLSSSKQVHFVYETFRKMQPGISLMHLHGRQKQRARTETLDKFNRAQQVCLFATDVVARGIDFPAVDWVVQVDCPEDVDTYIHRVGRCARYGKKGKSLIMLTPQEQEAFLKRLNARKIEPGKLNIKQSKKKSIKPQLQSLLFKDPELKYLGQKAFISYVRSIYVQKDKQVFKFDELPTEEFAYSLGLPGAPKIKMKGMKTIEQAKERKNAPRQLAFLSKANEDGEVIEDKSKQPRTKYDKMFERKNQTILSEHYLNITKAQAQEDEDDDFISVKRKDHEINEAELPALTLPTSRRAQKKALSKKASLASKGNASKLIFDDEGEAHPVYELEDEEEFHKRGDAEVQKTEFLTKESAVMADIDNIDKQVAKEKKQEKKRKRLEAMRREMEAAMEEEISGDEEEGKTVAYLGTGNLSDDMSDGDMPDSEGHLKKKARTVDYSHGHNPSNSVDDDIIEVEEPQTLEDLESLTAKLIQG

Tests used:
[1] = target: T1, myc-tagged Enp2 (9xmyc, natural promoter, double-tagged strain YSS7) (S. cerevisiae) (UniProt P48234); assay: co-IP; IPs on pooled sucrose gradient fractions 3–5 (the '50S' peak) of extracts of undepleted cells; anti-Dbp4, anti-myc, anti-HA; western blot
T1 sequence: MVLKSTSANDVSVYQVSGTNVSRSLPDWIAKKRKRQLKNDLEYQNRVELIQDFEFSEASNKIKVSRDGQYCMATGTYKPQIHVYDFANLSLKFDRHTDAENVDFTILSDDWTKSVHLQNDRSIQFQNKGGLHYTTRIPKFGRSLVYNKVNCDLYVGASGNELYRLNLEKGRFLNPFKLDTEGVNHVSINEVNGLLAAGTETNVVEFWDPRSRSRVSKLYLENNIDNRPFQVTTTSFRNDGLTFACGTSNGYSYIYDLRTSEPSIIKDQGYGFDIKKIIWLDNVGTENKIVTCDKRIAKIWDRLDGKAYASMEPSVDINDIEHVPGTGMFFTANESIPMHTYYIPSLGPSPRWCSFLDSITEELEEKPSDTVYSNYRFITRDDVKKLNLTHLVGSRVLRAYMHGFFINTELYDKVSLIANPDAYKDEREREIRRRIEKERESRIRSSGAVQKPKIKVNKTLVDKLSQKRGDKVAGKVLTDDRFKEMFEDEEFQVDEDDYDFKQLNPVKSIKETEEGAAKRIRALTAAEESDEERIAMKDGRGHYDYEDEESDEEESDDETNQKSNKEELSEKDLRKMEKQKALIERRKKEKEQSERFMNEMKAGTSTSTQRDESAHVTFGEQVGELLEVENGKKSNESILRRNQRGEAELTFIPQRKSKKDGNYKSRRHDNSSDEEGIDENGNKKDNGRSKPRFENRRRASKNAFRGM

[2] = target: T1, myc-tagged Enp2 (9xmyc, natural promoter, double-tagged strain YSS7) (S. cerevisiae); assay: co-IP; as the IPs from whole cell extracts, but the extract was pre-incubated with 30 µg RNase A for 10 min at 37°C
[3] = target: T1, myc-tagged Enp2 (9xmyc, natural promoter, double-tagged strain YSS7) (S. cerevisiae); assay: co-IP; whole cell extracts of the double-tagged strain in TMN100 buffer (25 mM Tris-HCl pH 7.5, 100 mM NaCl, 10 mM MgCl2, 0.1% NP-40); protein-A agarose beads with anti-Dbp4, anti-Mpp10, anti-HA or anti-myc antibodies, 4°C, 1 h; western blot; also extracts of cells depleted of Bfr2 for 8 h in YPD (Figure 3D)
[4] = target: T2, Mpp10 (endogenous) (S. cerevisiae (endogenous in the yeast strain)) (UniProt P47083); assay: as above
T2 sequence: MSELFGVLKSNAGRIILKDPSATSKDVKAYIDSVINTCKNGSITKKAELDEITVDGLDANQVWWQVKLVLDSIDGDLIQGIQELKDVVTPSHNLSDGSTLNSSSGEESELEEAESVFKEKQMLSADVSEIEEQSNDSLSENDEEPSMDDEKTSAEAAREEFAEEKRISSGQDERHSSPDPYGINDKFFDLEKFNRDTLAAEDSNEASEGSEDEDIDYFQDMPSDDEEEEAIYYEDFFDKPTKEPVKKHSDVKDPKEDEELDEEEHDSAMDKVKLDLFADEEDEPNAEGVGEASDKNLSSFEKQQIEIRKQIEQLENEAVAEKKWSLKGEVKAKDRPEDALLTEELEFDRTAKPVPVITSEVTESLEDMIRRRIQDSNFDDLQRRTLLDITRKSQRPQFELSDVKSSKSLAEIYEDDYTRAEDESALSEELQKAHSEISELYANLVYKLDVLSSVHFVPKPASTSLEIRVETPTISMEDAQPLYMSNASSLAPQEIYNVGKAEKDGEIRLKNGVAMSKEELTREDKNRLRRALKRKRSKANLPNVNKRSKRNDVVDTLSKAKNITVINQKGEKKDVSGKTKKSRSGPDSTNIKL

[5] = target: T3, Enp2 (two-hybrid fusion, full length) (S. cerevisiae) (UniProt P48234); assay: two-hybrid; directed assay in strain AH109; growth on SD–Trp–Leu–His with 2 mM 3-AT, 30°C (Figure 2, middle panel)
T3 sequence: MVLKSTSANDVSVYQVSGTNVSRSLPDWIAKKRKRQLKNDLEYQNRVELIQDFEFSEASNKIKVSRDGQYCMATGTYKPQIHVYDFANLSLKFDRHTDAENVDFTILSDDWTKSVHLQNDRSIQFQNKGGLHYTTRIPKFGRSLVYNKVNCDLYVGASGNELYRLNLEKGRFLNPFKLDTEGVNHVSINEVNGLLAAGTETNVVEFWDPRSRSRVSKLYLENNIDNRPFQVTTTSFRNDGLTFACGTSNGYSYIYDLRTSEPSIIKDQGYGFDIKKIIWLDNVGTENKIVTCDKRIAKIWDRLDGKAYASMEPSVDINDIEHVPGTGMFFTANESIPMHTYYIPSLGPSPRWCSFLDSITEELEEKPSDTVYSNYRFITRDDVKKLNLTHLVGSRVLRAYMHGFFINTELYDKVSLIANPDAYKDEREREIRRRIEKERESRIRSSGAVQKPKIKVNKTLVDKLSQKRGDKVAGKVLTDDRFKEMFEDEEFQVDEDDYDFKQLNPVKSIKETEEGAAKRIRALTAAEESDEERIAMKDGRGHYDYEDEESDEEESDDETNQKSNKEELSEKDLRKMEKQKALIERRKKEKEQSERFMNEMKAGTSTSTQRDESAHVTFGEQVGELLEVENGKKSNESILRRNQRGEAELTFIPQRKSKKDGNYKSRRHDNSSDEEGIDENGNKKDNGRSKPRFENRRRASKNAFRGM

[6] = target: T3, Enp2 (two-hybrid fusion, full length) (S. cerevisiae); assay: two-hybrid; directed assay in strain AH109; growth on SD–Trp–Leu–His with 20 mM 3-AT, 30°C (Figure 2, lower panel)
[7] = target: T4, HA-tagged Bfr2 (3xHA, GAL1 promoter, double-tagged strain YSS7) (S. cerevisiae) (UniProt Q06631); assay: co-IP; whole cell extracts of the double-tagged strain in TMN100 buffer (25 mM Tris-HCl pH 7.5, 100 mM NaCl, 10 mM MgCl2, 0.1% NP-40); protein-A agarose beads with anti-Dbp4, anti-Mpp10, anti-HA or anti-myc antibodies, 4°C, 1 h; western blot; also extracts of cells depleted of Bfr2 for 8 h in YPD (Figure 3D)
T4 sequence: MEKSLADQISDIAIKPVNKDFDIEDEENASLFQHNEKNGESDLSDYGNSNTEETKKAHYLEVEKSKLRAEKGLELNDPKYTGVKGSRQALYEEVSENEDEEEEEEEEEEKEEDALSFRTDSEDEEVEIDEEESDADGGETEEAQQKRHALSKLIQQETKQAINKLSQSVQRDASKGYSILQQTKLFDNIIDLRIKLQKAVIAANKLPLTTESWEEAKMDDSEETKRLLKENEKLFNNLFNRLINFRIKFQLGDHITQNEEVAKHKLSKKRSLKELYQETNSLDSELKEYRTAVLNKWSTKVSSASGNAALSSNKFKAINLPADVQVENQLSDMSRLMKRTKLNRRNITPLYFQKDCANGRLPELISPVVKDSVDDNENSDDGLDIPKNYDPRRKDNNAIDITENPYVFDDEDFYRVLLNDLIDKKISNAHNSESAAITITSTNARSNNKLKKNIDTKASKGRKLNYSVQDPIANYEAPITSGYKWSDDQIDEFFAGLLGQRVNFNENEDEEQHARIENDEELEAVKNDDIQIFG

[8] = target: Dbp4 (two-hybrid fusion, full length) (S. cerevisiae) (UniProt P20448); assay: two-hybrid; directed assay in strain AH109; growth on SD–Trp–Leu–His with 2 mM 3-AT, 30°C (Figure 2, middle panel)
[9] = target: Dbp4 (two-hybrid fusion, full length) (S. cerevisiae) (UniProt P20448); assay: two-hybrid; directed assay in strain AH109; growth on SD–Trp–Leu–His with 20 mM 3-AT, 30°C (Figure 2, lower panel)

B1: HA-tagged Bfr2 (3xHA, GAL1 promoter, double-tagged strain YSS7) (protein, UniProt Q06631 1-534)
chain: MEKSLADQISDIAIKPVNKDFDIEDEENASLFQHNEKNGESDLSDYGNSNTEETKKAHYLEVEKSKLRAEKGLELNDPKYTGVKGSRQALYEEVSENEDEEEEEEEEEEKEEDALSFRTDSEDEEVEIDEEESDADGGETEEAQQKRHALSKLIQQETKQAINKLSQSVQRDASKGYSILQQTKLFDNIIDLRIKLQKAVIAANKLPLTTESWEEAKMDDSEETKRLLKENEKLFNNLFNRLINFRIKFQLGDHITQNEEVAKHKLSKKRSLKELYQETNSLDSELKEYRTAVLNKWSTKVSSASGNAALSSNKFKAINLPADVQVENQLSDMSRLMKRTKLNRRNITPLYFQKDCANGRLPELISPVVKDSVDDNENSDDGLDIPKNYDPRRKDNNAIDITENPYVFDDEDFYRVLLNDLIDKKISNAHNSESAAITITSTNARSNNKLKKNIDTKASKGRKLNYSVQDPIANYEAPITSGYKWSDDQIDEFFAGLLGQRVNFNENEDEEQHARIENDEELEAVKNDDIQIFG
binding [1]: binds | binding [2]: binds | binding [3]: binds | binding [4]: binds

B4: Nop6 (two-hybrid prey) (protein, UniProt Q07623 1-225)
chain: MGSEEDKKLTKKQLKAQQFRKSKEEKDQEKDVKKEQAPEGKRPNSAAGNDGEEPVKKKRKTRRGRGGKGKNGKKGNRFIVFVGSLPRDITAVELQNHFKNSSPDQIRLRADKGIAFLEFDADKDRTGIQRRMDIALLQHGTLLKEKKINVELTVGGGGNSQERLEKLKNKNIKLDEERKERLTKMINDGNQKKIAKTTATAAQTSGTDNKPVPAGIHPDRAKLLK
binding [8]: no binding | binding [9]: no binding

Second part, the binder after the results:

binding [5]: binds | binding [6]: binds
B2: Bfr2 (two-hybrid prey, full length) (protein, UniProt Q06631 1-534)
chain: MEKSLADQISDIAIKPVNKDFDIEDEENASLFQHNEKNGESDLSDYGNSNTEETKKAHYLEVEKSKLRAEKGLELNDPKYTGVKGSRQALYEEVSENEDEEEEEEEEEEKEEDALSFRTDSEDEEVEIDEEESDADGGETEEAQQKRHALSKLIQQETKQAINKLSQSVQRDASKGYSILQQTKLFDNIIDLRIKLQKAVIAANKLPLTTESWEEAKMDDSEETKRLLKENEKLFNNLFNRLINFRIKFQLGDHITQNEEVAKHKLSKKRSLKELYQETNSLDSELKEYRTAVLNKWSTKVSSASGNAALSSNKFKAINLPADVQVENQLSDMSRLMKRTKLNRRNITPLYFQKDCANGRLPELISPVVKDSVDDNENSDDGLDIPKNYDPRRKDNNAIDITENPYVFDDEDFYRVLLNDLIDKKISNAHNSESAAITITSTNARSNNKLKKNIDTKASKGRKLNYSVQDPIANYEAPITSGYKWSDDQIDEFFAGLLGQRVNFNENEDEEQHARIENDEELEAVKNDDIQIFG

binding [7]: binds
B3: Mpp10 (endogenous) (protein, UniProt P47083 1-593)
chain: MSELFGVLKSNAGRIILKDPSATSKDVKAYIDSVINTCKNGSITKKAELDEITVDGLDANQVWWQVKLVLDSIDGDLIQGIQELKDVVTPSHNLSDGSTLNSSSGEESELEEAESVFKEKQMLSADVSEIEEQSNDSLSENDEEPSMDDEKTSAEAAREEFAEEKRISSGQDERHSSPDPYGINDKFFDLEKFNRDTLAAEDSNEASEGSEDEDIDYFQDMPSDDEEEEAIYYEDFFDKPTKEPVKKHSDVKDPKEDEELDEEEHDSAMDKVKLDLFADEEDEPNAEGVGEASDKNLSSFEKQQIEIRKQIEQLENEAVAEKKWSLKGEVKAKDRPEDALLTEELEFDRTAKPVPVITSEVTESLEDMIRRRIQDSNFDDLQRRTLLDITRKSQRPQFELSDVKSSKSLAEIYEDDYTRAEDESALSEELQKAHSEISELYANLVYKLDVLSSVHFVPKPASTSLEIRVETPTISMEDAQPLYMSNASSLAPQEIYNVGKAEKDGEIRLKNGVAMSKEELTREDKNRLRRALKRKRSKANLPNVNKRSKRNDVVDTLSKAKNITVINQKGEKKDVSGKTKKSRSGPDSTNIKL
